# The supplement of paper PMC8728848
# This is one part of the list.
# B1: RVL (Remusatia vivipara), B5LYJ9 (protein)
# chain: MAKLLLFLLPAILGLLVPRSAVALGTNYLLSGQTLDTEGHLKNGDFDLVMQDDCNLVLYNGNWQSNTANNGRDCKLTLTDYGELVIKNGDGSTVWKSGAQSVKGNYAAVVHPDGRLVVLGPSVFKIDPWVRGLNSLRFRNIPFTNNLLFSGQVLYGDGRLTAKNHQLVMQGDCNLVLYGGKYGWQSNTHGNGEHCFLRLNHKGELIIKDDDFKTIWSSRSSSKQGEYVLILQDDGFGVIYGPAIFETSSKRSIAAS
# Experiments:
# Assay in all cases: glycan array binding signal (z-score within array); higher = stronger binding
# Conditions in all cases: glycan notation: IUPAC condensed, linker removed
# [1] = target: Fuc(a1-2)Gal(b1-4)GlcNAc(b1-3)Gal(b1-4)GlcNAc(b1-3)Gal(b1-4)GlcNAc
# How it was run: (§1)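 Arrays were curated from the Consortium for Functional Glycomics database, 3228 in total, and kept only where the protein sequence was available. Binding is expressed as a within-array Z-score. This score was averaged across arrays of the same protein sequence at different concentrations or buffers and across linkers, and negative values can be read as non-binding.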
# [2] = target: Fuc(a1-2)Gal(b1-4)GlcNAc(b1-3)GalNAc
# How it was run: as §1
# [3] = target: Fuc(a1-2)Gal(b1-4)GlcNAc(b1-3)[Fuc(a1-2)Gal(b1-4)GlcNAc(b1-6)]GalNAc
# How it was run: as §1
# [4] = target: Fuc(a1-2)Gal(b1-4)GlcNAc(b1-6)GalNAc
# How it was run: as §1
# [5] = target: Fuc(a1-2)Gal(b1-4)GlcNAc6S
# How it was run: as §1
# [6] = target: Fuc(a1-2)Gal(b1-4)[Fuc(a1-3)]GlcNAc
# How it was run: as §1
# [7] = target: Fuc(a1-2)Gal(b1-4)[Fuc(a1-3)]GlcNAc(b1-2)Man(a1-3)[Fuc(a1-2)Gal(b1-4)[Fuc(a1-3)]GlcNAc(b1-2)Man(a1-6)]Man(b1-4)GlcNAc(b1-4)GlcNAc
# How it was run: as §1
# [8] = target: Fuc(a1-2)Gal(b1-4)[Fuc(a1-3)]GlcNAc(b1-2)Man(a1-6)[Fuc(a1-2)Gal(b1-4)[Fuc(a1-3)]GlcNAc(b1-2)Man(a1-3)]Man(b1-4)GlcNAc(b1-4)[Fuc(a1-6)]GlcNAc
# How it was run: as §1
# [9] = target: Fuc(a1-2)Gal(b1-4)[Fuc(a1-3)]GlcNAc(b1-2)[Fuc(a1-2)Gal(b1-4)[Fuc(a1-3)]GlcNAc(b1-4)]Man(a1-3)[Fuc(a1-2)Gal(b1-4)[Fuc(a1-3)]GlcNAc(b1-2)Man(a1-6)]Man(b1-4)GlcNAc(b1-4)GlcNAc
# How it was run: as §1
# [10] = target: Fuc(a1-2)Gal(b1-4)[Fuc(a1-3)]GlcNAc(b1-3)Gal(b1-4)[Fuc(a1-3)]GlcNAc
# How it was run: as §1
# [11] = target: Fuc(a1-2)Gal(b1-4)[Fuc(a1-3)]GlcNAc(b1-3)Gal(b1-4)[Fuc(a1-3)]GlcNAc(b1-3)Gal(b1-4)[Fuc(a1-3)]GlcNAc
# How it was run: as §1
# [12] = target: Fuc(a1-2)Gal(b1-4)[Fuc(a1-3)]GlcNAc(b1-3)GalNAc
# How it was run: as §1
# [13] = target: Fuc(a1-2)Gal(b1-4)[Fuc(a1-3)]GlcNAc(b1-3)[Neu5Ac(a2-6)Gal(b1-4)GlcNAc(b1-6)]Gal(b1-4)Glc
# How it was run: as §1
# [14] = target: Fuc(a1-2)Gal6S(b1-3)GlcNAc
# How it was run: as §1
# [15] = target: Fuc(a1-2)Gal6S(b1-3)GlcNAc6S
# How it was run: as §1
# Fuc(a1-2)Gal6S(b1-4)Glc = target: Fuc(a1-2)Gal6S(b1-4)Glc
# How it was run: as §1
# [16] = target: Fuc(a1-2)Gal6S(b1-4)Glc6S
# How it was run: as §1
# [17] = target: Fuc(a1-2)Gal6S(b1-4)GlcNAc
# How it was run: as §1
# Fuc(a1-2)[Gal(a1-3)]Gal = target: Fuc(a1-2)[Gal(a1-3)]Gal
# How it was run: as §1
# [18] = target: Fuc(a1-2)[Gal(a1-3)]Gal(b1-3)GalNAc
# How it was run: as §1
# [19] = target: Fuc(a1-2)[Gal(a1-3)]Gal(b1-3)GlcNAc
# How it was run: as §1
# [20] = target: Fuc(a1-2)[Gal(a1-3)]Gal(b1-3)GlcNAc(b1-2)Man(a1-3)[Fuc(a1-2)[Gal(a1-3)]Gal(b1-3)GlcNAc(b1-2)Man(a1-6)]Man(b1-4)GlcNAc(b1-4)GlcNAc
# How it was run: as §1
# [21] = target: Fuc(a1-2)[Gal(a1-3)]Gal(b1-3)GlcNAc(b1-2)Man(a1-3)[Fuc(a1-2)[Gal(a1-3)]Gal(b1-3)GlcNAc(b1-2)Man(a1-6)]Man(b1-4)GlcNAc(b1-4)[Fuc(a1-6)]GlcNAc
# How it was run: as §1
# [22] = target: Fuc(a1-2)[Gal(a1-3)]Gal(b1-3)GlcNAc(b1-3)GalNAc
# How it was run: as §1
# [23] = target: Fuc(a1-2)[Gal(a1-3)]Gal(b1-4)Glc
# How it was run: as §1
# [24] = target: Fuc(a1-2)[Gal(a1-3)]Gal(b1-4)GlcNAc
# How it was run: as §1
# [25] = target: Fuc(a1-2)[Gal(a1-3)]Gal(b1-4)GlcNAc(b1-2)Man(a1-3)[Fuc(a1-2)[Gal(a1-3)]Gal(b1-4)GlcNAc(b1-2)Man(a1-6)]Man(b1-4)GlcNAc(b1-4)GlcNAc
# How it was run: as §1
# [26] = target: Fuc(a1-2)[Gal(a1-3)]Gal(b1-4)GlcNAc(b1-2)Man(a1-3)[Fuc(a1-2)[Gal(a1-3)]Gal(b1-4)GlcNAc(b1-2)Man(a1-6)]Man(b1-4)GlcNAc(b1-4)[Fuc(a1-6)]GlcNAc
# How it was run: as §1
# [27] = target: Fuc(a1-2)[Gal(a1-3)]Gal(b1-4)GlcNAc(b1-3)GalNAc
# How it was run: as §1
# [28] = target: Fuc(a1-2)[Gal(a1-3)]Gal(b1-4)GlcNAc(b1-6)GalNAc
# How it was run: as §1
binder,measurement,setting,value
B1,glycan array binding signal (z-score),[1],-0.272
same,glycan array binding signal (z-score),[2],0.71
same,glycan array binding signal (z-score),[3],-0.078
same,glycan array binding signal (z-score),[4],0.014
same,glycan array binding signal (z-score),[5],-0.122
same,glycan array binding signal (z-score),[6],-0.153
same,glycan array binding signal (z-score),[7],0.001
same,glycan array binding signal (z-score),[8],9.79
same,glycan array binding signal (z-score),[9],0.086
same,glycan array binding signal (z-score),[10],-0.21
same,glycan array binding signal (z-score),[11],-0.151
same,glycan array binding signal (z-score),[12],0.52
same,glycan array binding signal (z-score),[13],-0.316
same,glycan array binding signal (z-score),[14],-0.266
same,glycan array binding signal (z-score),[15],0.483
same,glycan array binding signal (z-score),Fuc(a1-2)Gal6S(b1-4)Glc,-0.251
same,glycan array binding signal (z-score),[16],-0.151
same,glycan array binding signal (z-score),[17],0.052
same,glycan array binding signal (z-score),Fuc(a1-2)[Gal(a1-3)]Gal,-0.241
same,glycan array binding signal (z-score),[18],-0.134
same,glycan array binding signal (z-score),[19],0.119
same,glycan array binding signal (z-score),[20],0.126
same,glycan array binding signal (z-score),[21],-0.642
same,glycan array binding signal (z-score),[22],-0.03
same,glycan array binding signal (z-score),[23],-0.124
same,glycan array binding signal (z-score),[24],-0.261
same,glycan array binding signal (z-score),[25],0.241
same,glycan array binding signal (z-score),[26],1.39
same,glycan array binding signal (z-score),[27],0.041
same,glycan array binding signal (z-score),[28],-0.215
